Reference: the supplement of paper PMC8728848
The other results are listed elsewhere or left out.

What was measured:
Assay in all cases: glycan array binding signal (z-score within array); higher = stronger binding
Conditions in all cases: glycan notation: IUPAC condensed, linker removed
Fuc(a1-2)Gal = target: Fuc(a1-2)Gal
Procedure, shortened: (§1)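 Negative Z-scores can be read as non-binding. The Z-score is calculated within each array and then averaged across arrays of one protein sequence at different concentrations or buffers and across linkers. Arrays, 3228 in all, were curated from the Consortium for Functional Glycomics database and kept only where the protein sequence was available.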

Fuc(a1-2)Gal(b1-3)GalNAc = target: Fuc(a1-2)Gal(b1-3)GalNAc
Procedure, shortened: as §1

[1] = target: Fuc(a1-2)Gal(b1-3)GalNAc(b1-3)Gal
Procedure, shortened: as §1

[2] = target: Fuc(a1-2)Gal(b1-3)GalNAc(b1-3)Gal(a1-4)Gal(b1-4)Glc
Procedure, shortened: as §1

[3] = target: Fuc(a1-2)Gal(b1-3)GalNAc(b1-4)[Neu5Ac(a2-3)]Gal(b1-4)Glc
Procedure, shortened: as §1

Fuc(a1-2)Gal(b1-3)GlcNAc = target: Fuc(a1-2)Gal(b1-3)GlcNAc
Procedure, shortened: as §1

[4] = target: Fuc(a1-2)Gal(b1-3)GlcNAc(b1-3)Gal(b1-4)Glc
Procedure, shortened: as §1

[5] = target: Fuc(a1-2)Gal(b1-3)[Fuc(a1-4)]GlcNAc
Procedure, shortened: as §1

Fuc(a1-2)Gal(b1-4)Glc = target: Fuc(a1-2)Gal(b1-4)Glc
Procedure, shortened: as §1

Fuc(a1-2)Gal(b1-4)Glc6S = target: Fuc(a1-2)Gal(b1-4)Glc6S
Procedure, shortened: as §1

Fuc(a1-2)Gal(b1-4)GlcNAc = target: Fuc(a1-2)Gal(b1-4)GlcNAc
Procedure, shortened: as §1

[6] = target: Fuc(a1-2)Gal(b1-4)GlcNAc(b1-2)Man(a1-3)[Fuc(a1-2)Gal(b1-4)GlcNAc(b1-2)Man(a1-6)]Man(b1-4)GlcNAc(b1-4)GlcNAc
Procedure, shortened: as §1

[7] = target: Fuc(a1-2)Gal(b1-4)GlcNAc(b1-2)Man(a1-6)[Gal(b1-4)GlcNAc(b1-2)Man(a1-3)]Man(b1-4)GlcNAc(b1-4)GlcNAc
Procedure, shortened: as §1

[8] = target: Fuc(a1-2)Gal(b1-4)GlcNAc(b1-3)Gal(b1-4)GlcNAc
Procedure, shortened: as §1

[9] = target: Fuc(a1-2)Gal(b1-4)GlcNAc(b1-3)Gal(b1-4)GlcNAc(b1-3)Gal(b1-4)GlcNAc
Procedure, shortened: as §1

[10] = target: Fuc(a1-2)Gal(b1-4)GlcNAc6S
Procedure, shortened: as §1

[11] = target: Fuc(a1-2)Gal(b1-4)[Fuc(a1-3)]GlcNAc
Procedure, shortened: as §1

[12] = target: Fuc(a1-2)Gal(b1-4)[Fuc(a1-3)]GlcNAc(b1-3)Gal(b1-4)[Fuc(a1-3)]GlcNAc
Procedure, shortened: as §1

[13] = target: Fuc(a1-2)Gal(b1-4)[Fuc(a1-3)]GlcNAc(b1-3)Gal(b1-4)[Fuc(a1-3)]GlcNAc(b1-3)Gal(b1-4)[Fuc(a1-3)]GlcNAc
Procedure, shortened: as §1

Fuc(a1-2)Gal6S(b1-4)Glc = target: Fuc(a1-2)Gal6S(b1-4)Glc
Procedure, shortened: as §1

[14] = target: Fuc(a1-2)Gal6S(b1-4)Glc6S
Procedure, shortened: as §1

[15] = target: Fuc(a1-2)Gal6S(b1-4)GlcNAc
Procedure, shortened: as §1

Fuc(a1-2)[Gal(a1-3)]Gal = target: Fuc(a1-2)[Gal(a1-3)]Gal
Procedure, shortened: as §1

[16] = target: Fuc(a1-2)[Gal(a1-3)]Gal(b1-3)GlcNAc
Procedure, shortened: as §1

[17] = target: Fuc(a1-2)[Gal(a1-3)]Gal(b1-4)Glc
Procedure, shortened: as §1

[18] = target: Fuc(a1-2)[Gal(a1-3)]Gal(b1-4)GlcNAc
Procedure, shortened: as §1

[19] = target: Fuc(a1-2)[Gal(a1-3)]Gal(b1-4)[Fuc(a1-3)]GlcNAc
Procedure, shortened: as §1

[20] = target: Fuc(a1-2)[Gal(a1-4)]Gal(b1-4)GlcNAc
Procedure, shortened: as §1

[21] = target: Fuc(a1-2)[GalNAc(a1-3)]Gal
Procedure, shortened: as §1

[22] = target: Fuc(a1-2)[GalNAc(a1-3)]Gal(b1-3)GlcNAc
Procedure, shortened: as §1

[23] = target: Fuc(a1-2)[GalNAc(a1-3)]Gal(b1-4)Glc
Procedure, shortened: as §1

[24] = target: Fuc(a1-2)[GalNAc(a1-3)]Gal(b1-4)GlcNAc
Procedure, shortened: as §1

[25] = target: Fuc(a1-2)[GalNAc(a1-3)]Gal(b1-4)[Fuc(a1-3)]GlcNAc
Procedure, shortened: as §1

[26] = target: Fuc(a1-2)[GalNAc(a1-4)]Gal(b1-4)GlcNAc
Procedure, shortened: as §1

[27] = target: Fuc(a1-2)[GalNAc(b1-3)]Gal
Procedure, shortened: as §1

Fuc(a1-3)GlcNAc = target: Fuc(a1-3)GlcNAc
Procedure, shortened: as §1

[28] = target: Fuc(a1-3)[Gal(b1-4)]Glc6S
Procedure, shortened: as §1

[29] = target: Fuc(a1-3)[Gal(b1-4)]GlcNAc
Procedure, shortened: as §1

[30] = target: Fuc(a1-3)[Gal(b1-4)]GlcNAc(b1-3)Gal(b1-3)[Fuc(a1-4)]GlcNAc
Procedure, shortened: as §1

[31] = target: Fuc(a1-3)[Gal(b1-4)]GlcNAc(b1-4)Gal(b1-4)[Fuc(a1-3)]GlcNAc
Procedure, shortened: as §1

[32] = target: Fuc(a1-3)[Gal(b1-4)]GlcNAc(b1-4)Gal(b1-4)[Fuc(a1-3)]GlcNAc(b1-4)Gal(b1-4)[Fuc(a1-3)]GlcNAc
Procedure, shortened: as §1

[33] = target: Fuc(a1-3)[Gal(b1-4)]GlcNAc6S
Procedure, shortened: as §1

[34] = target: Fuc(a1-3)[Gal3S(b1-4)]Glc6S
Procedure, shortened: as §1

[35] = target: Fuc(a1-3)[Gal3S(b1-4)]GlcNAc
Procedure, shortened: as §1

[36] = target: Fuc(a1-3)[Gal3S(b1-4)]GlcNAc6S
Procedure, shortened: as §1

B1: Mannose Binding Protein (Lactobacillus plantarum) (protein)
chain: AERSEAALTHVDKDNFLKYFSLNGSATYDAKTGIVTITPNQNNQVGNFSLTSKIDMNKSFTLTGQVNLGSNPNGADGIGFAFHSGNTTDVGNAGGNLGIGGLQDAIGFKLDTWFNSYQAPSSDKNGSEISSTNSNGFGWNGDSANAPYGTFVKTSNQEISTANGSKVQRWWAQDTGESQALSKADIDGNFHDFVVNYDGATRTLTVSYTQASGKVLTWKTTVASSYQAMAMVVSASTGAAKNLQQFKLTSFDFQEAATVNVKYVDTTGHQLAQG
Fuc(a1-2)Gal
  glycan array binding signal (z-score): 0.211
Fuc(a1-2)Gal(b1-3)GalNAc
  glycan array binding signal (z-score): -0.606
[1]
  glycan array binding signal (z-score): -0.031
[2]
  glycan array binding signal (z-score): -0.3
[3]
  glycan array binding signal (z-score): -0.451
Fuc(a1-2)Gal(b1-3)GlcNAc
  glycan array binding signal (z-score): -0.034
[4]
  glycan array binding signal (z-score): -0.532
[5]
  glycan array binding signal (z-score): -0.167
Fuc(a1-2)Gal(b1-4)Glc
  glycan array binding signal (z-score): -0.842
Fuc(a1-2)Gal(b1-4)Glc6S
  glycan array binding signal (z-score): 0.185
Fuc(a1-2)Gal(b1-4)GlcNAc
  glycan array binding signal (z-score): -0.102
[6]
  glycan array binding signal (z-score): -0.383
[7]
  glycan array binding signal (z-score): -0.749
[8]
  glycan array binding signal (z-score): -0.358
[9]
  glycan array binding signal (z-score): -0.152
[10]
  glycan array binding signal (z-score): 0.015
[11]
  glycan array binding signal (z-score): -0.436
[12]
  glycan array binding signal (z-score): -0.572
[13]
  glycan array binding signal (z-score): -0.302
Fuc(a1-2)Gal6S(b1-4)Glc
  glycan array binding signal (z-score): 0.044
[14]
  glycan array binding signal (z-score): 0.402
[15]
  glycan array binding signal (z-score): 0.084
Fuc(a1-2)[Gal(a1-3)]Gal
  glycan array binding signal (z-score): -0.056
[16]
  glycan array binding signal (z-score): -0.696
[17]
  glycan array binding signal (z-score): 0.274
[18]
  glycan array binding signal (z-score): -0.689
[19]
  glycan array binding signal (z-score): 0.197
[20]
  glycan array binding signal (z-score): -0.168
[21]
  glycan array binding signal (z-score): -0.228
[22]
  glycan array binding signal (z-score): -0.252
[23]
  glycan array binding signal (z-score): -0.337
[24]
  glycan array binding signal (z-score): -0.19
[25]
  glycan array binding signal (z-score): 0.499
[26]
  glycan array binding signal (z-score): -1.03
[27]
  glycan array binding signal (z-score): 0.325
Fuc(a1-3)GlcNAc
  glycan array binding signal (z-score): -0.141
[28]
  glycan array binding signal (z-score): -0.139
[29]
  glycan array binding signal (z-score): -0.495
[30]
  glycan array binding signal (z-score): 0.86
[31]
  glycan array binding signal (z-score): -0.291
[32]
  glycan array binding signal (z-score): -0.071
[33]
  glycan array binding signal (z-score): -0.079
[34]
  glycan array binding signal (z-score): 1.28
[35]
  glycan array binding signal (z-score): 0.017
[36]
  glycan array binding signal (z-score): -0.14
